The supplement of paper PMC8728848
Some of the results follow.

Assays:
Assay in all cases: glycan array binding signal (z-score within array); higher = stronger binding
Settings in all cases: glycan notation: IUPAC condensed, linker removed
[1] = target: Gal(b1-4)GlcNAc(b1-3)Gal(b1-4)GlcNAc(b1-2)[Gal(b1-4)GlcNAc(b1-3)Gal(b1-4)GlcNAc(b1-6)]Man(a1-6)[Gal(b1-4)GlcNAc(b1-3)Gal(b1-4)GlcNAc(b1-2)Man(a1-3)]Man(b1-4)GlcNAc(b1-4)GlcNAc
Summary of the method: (§1)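 Glycan array binding is given as a within-array Z-score, which can be read as non-binding when negative. The arrays, 3228 of them, came from the Consortium for Functional Glycomics database and were retained only where the protein sequence was available. Z-scores were averaged across arrays of the same protein sequence at different concentrations or buffers and across linkers.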

[2] = target: Gal(b1-4)GlcNAc(b1-3)Gal(b1-4)GlcNAc(b1-2)[Gal(b1-4)GlcNAc(b1-3)Gal(b1-4)GlcNAc(b1-6)]Man(a1-6)[Gal(b1-4)GlcNAc(b1-3)Gal(b1-4)GlcNAc(b1-2)Man(a1-3)]Man(b1-4)GlcNAc(b1-4)[Fuc(a1-6)]GlcNAc
Summary of the method: as §1

[3] = target: Gal(b1-4)GlcNAc(b1-3)Gal(b1-4)GlcNAc(b1-3)Gal(b1-4)GlcNAc
Summary of the method: as §1

[4] = target: Gal(b1-4)GlcNAc(b1-3)Gal(b1-4)GlcNAc(b1-3)Gal(b1-4)GlcNAc(b1-2)Man(a1-3)[Gal(b1-4)GlcNAc(b1-3)Gal(b1-4)GlcNAc(b1-3)Gal(b1-4)GlcNAc(b1-2)Man(a1-6)]Man(b1-4)GlcNAc(b1-4)GlcNAc
Summary of the method: as §1

[5] = target: Gal(b1-4)GlcNAc(b1-3)Gal(b1-4)GlcNAc(b1-3)Gal(b1-4)GlcNAc(b1-2)Man(a1-3)[Gal(b1-4)GlcNAc(b1-3)Gal(b1-4)GlcNAc(b1-3)Gal(b1-4)GlcNAc(b1-2)Man(a1-6)]Man(b1-4)GlcNAc(b1-4)[Fuc(a1-6)]GlcNAc
Summary of the method: as §1

[6] = target: Gal(b1-4)GlcNAc(b1-3)Gal(b1-4)GlcNAc(b1-3)Gal(b1-4)GlcNAc(b1-2)[Gal(b1-4)GlcNAc(b1-3)Gal(b1-4)GlcNAc(b1-3)Gal(b1-4)GlcNAc(b1-6)]Man(a1-6)[Gal(b1-4)GlcNAc(b1-3)Gal(b1-4)GlcNAc(b1-3)Gal(b1-4)GlcNAc(b1-2)Man(a1-3)]Man(b1-4)GlcNAc(b1-4)[Fuc(a1-6)]GlcNAc
Summary of the method: as §1

[7] = target: Gal(b1-4)GlcNAc(b1-3)Gal(b1-4)GlcNAc(b1-3)Gal(b1-4)GlcNAc(b1-3)Gal(b1-4)GlcNAc(b1-2)Man(a1-3)[Gal(b1-4)GlcNAc(b1-3)Gal(b1-4)GlcNAc(b1-3)Gal(b1-4)GlcNAc(b1-3)Gal(b1-4)GlcNAc(b1-2)Man(a1-6)]Man(b1-4)GlcNAc(b1-4)GlcNAc
Summary of the method: as §1

[8] = target: Gal(b1-4)GlcNAc(b1-3)Gal(b1-4)GlcNAc(b1-3)Gal(b1-4)GlcNAc(b1-3)Gal(b1-4)GlcNAc(b1-2)Man(a1-3)[Gal(b1-4)GlcNAc(b1-3)Gal(b1-4)GlcNAc(b1-3)Gal(b1-4)GlcNAc(b1-3)Gal(b1-4)GlcNAc(b1-2)Man(a1-6)]Man(b1-4)GlcNAc(b1-4)[Fuc(a1-6)]GlcNAc
Summary of the method: as §1

[9] = target: Gal(b1-4)GlcNAc(b1-3)Gal(b1-4)GlcNAc(b1-3)Gal(b1-4)GlcNAc(b1-3)Gal(b1-4)GlcNAc(b1-2)[Gal(b1-4)GlcNAc(b1-3)Gal(b1-4)GlcNAc(b1-3)Gal(b1-4)GlcNAc(b1-3)Gal(b1-4)GlcNAc(b1-6)]Man(a1-6)[Gal(b1-4)GlcNAc(b1-3)Gal(b1-4)GlcNAc(b1-3)Gal(b1-4)GlcNAc(b1-3)Gal(b1-4)GlcNAc(b1-2)Man(a1-3)]Man(b1-4)GlcNAc(b1-4)[Fuc(a1-6)]GlcNAc
Summary of the method: as §1

[10] = target: Gal(b1-4)GlcNAc(b1-3)Gal(b1-4)GlcNAc(b1-3)Gal(b1-4)GlcNAc(b1-3)Gal(b1-4)GlcNAc(b1-3)Gal(b1-4)GlcNAc(b1-2)Man(a1-3)[Gal(b1-4)GlcNAc(b1-3)Gal(b1-4)GlcNAc(b1-3)Gal(b1-4)GlcNAc(b1-3)Gal(b1-4)GlcNAc(b1-3)Gal(b1-4)GlcNAc(b1-2)Man(a1-6)]Man(b1-4)GlcNAc(b1-4)GlcNAc
Summary of the method: as §1

[11] = target: Gal(b1-4)GlcNAc(b1-3)Gal(b1-4)GlcNAc(b1-3)Gal(b1-4)GlcNAc(b1-3)Gal(b1-4)GlcNAc(b1-3)Gal(b1-4)GlcNAc(b1-2)Man(a1-3)[Gal(b1-4)GlcNAc(b1-3)Gal(b1-4)GlcNAc(b1-3)Gal(b1-4)GlcNAc(b1-3)Gal(b1-4)GlcNAc(b1-3)Gal(b1-4)GlcNAc(b1-2)Man(a1-6)]Man(b1-4)GlcNAc(b1-4)[Fuc(a1-6)]GlcNAc
Summary of the method: as §1

[12] = target: Gal(b1-4)GlcNAc(b1-3)Gal(b1-4)GlcNAc(b1-3)Gal(b1-4)GlcNAc(b1-3)Gal(b1-4)GlcNAc(b1-3)Gal(b1-4)GlcNAc(b1-2)[Gal(b1-4)GlcNAc(b1-3)Gal(b1-4)GlcNAc(b1-3)Gal(b1-4)GlcNAc(b1-3)Gal(b1-4)GlcNAc(b1-3)Gal(b1-4)GlcNAc(b1-6)]Man(a1-6)[Gal(b1-4)GlcNAc(b1-3)Gal(b1-4)GlcNAc(b1-3)Gal(b1-4)GlcNAc(b1-3)Gal(b1-4)GlcNAc(b1-3)Gal(b1-4)GlcNAc(b1-2)Man(a1-3)]Man(b1-4)GlcNAc(b1-4)[Fuc(a1-6)]GlcNAc
Summary of the method: as §1

[13] = target: Gal(b1-4)GlcNAc(b1-3)Gal(b1-4)GlcNAc(b1-3)Gal(b1-4)GlcNAc(b1-3)Gal(b1-4)GlcNAc(b1-3)Gal(b1-4)GlcNAc(b1-3)Gal(b1-4)GlcNAc(b1-2)Man(a1-3)[Gal(b1-4)GlcNAc(b1-3)Gal(b1-4)GlcNAc(b1-3)Gal(b1-4)GlcNAc(b1-3)Gal(b1-4)GlcNAc(b1-3)Gal(b1-4)GlcNAc(b1-3)Gal(b1-4)GlcNAc(b1-2)Man(a1-6)]Man(b1-4)GlcNAc(b1-4)GlcNAc
Summary of the method: as §1

[14] = target: Gal(b1-4)GlcNAc(b1-3)Gal(b1-4)GlcNAc(b1-3)GalNAc
Summary of the method: as §1

[15] = target: Gal(b1-4)GlcNAc(b1-3)Gal(b1-4)GlcNAc(b1-3)[Gal(b1-4)GlcNAc(b1-3)Gal(b1-4)GlcNAc(b1-6)]GalNAc
Summary of the method: as §1

[16] = target: Gal(b1-4)GlcNAc(b1-3)Gal(b1-4)GlcNAc(b1-6)[Gal(b1-3)]GalNAc
Summary of the method: as §1

[17] = target: Gal(b1-4)GlcNAc(b1-3)Gal(b1-4)[Fuc(a1-3)]GlcNAc(b1-3)Gal(b1-4)[Fuc(a1-3)]GlcNAc
Summary of the method: as §1

[18] = target: Gal(b1-4)GlcNAc(b1-3)GalNAc
Summary of the method: as §1

[19] = target: Gal(b1-4)GlcNAc(b1-3)[Fuc(a1-3)GlcNAc(b1-6)]Gal(b1-4)Glc
Summary of the method: as §1

[20] = target: Gal(b1-4)GlcNAc(b1-3)[Gal(b1-4)GlcNAc(b1-6)]Gal(b1-4)GlcNAc
Summary of the method: as §1

[21] = target: Gal(b1-4)GlcNAc(b1-3)[GlcNAc(b1-6)]Gal(b1-4)GlcNAc
Summary of the method: as §1

[22] = target: Gal(b1-4)GlcNAc(b1-6)Gal(b1-4)GlcNAc
Summary of the method: as §1

[23] = target: Gal(b1-4)GlcNAc(b1-6)GalNAc
Summary of the method: as §1

[24] = target: Gal(b1-4)GlcNAc(b1-6)[Gal(b1-3)]GalNAc
Summary of the method: as §1

[25] = target: Gal(b1-4)GlcNAc(b1-6)[Gal(b1-4)GlcNAc(b1-3)]GalNAc
Summary of the method: as §1

Gal(b1-4)GlcNAc6P = target: Gal(b1-4)GlcNAc6P
Summary of the method: as §1

Gal(b1-6)Gal = target: Gal(b1-6)Gal
Summary of the method: as §1

Gal3S(b1-3)GalNAc = target: Gal3S(b1-3)GalNAc
Summary of the method: as §1

Gal3S(b1-3)GlcNAc = target: Gal3S(b1-3)GlcNAc
Summary of the method: as §1

[26] = target: Gal3S(b1-3)[Fuc(a1-4)]GlcNAc
Summary of the method: as §1

Gal3S(b1-4)Glc = target: Gal3S(b1-4)Glc
Summary of the method: as §1

Gal3S(b1-4)Glc6S = target: Gal3S(b1-4)Glc6S
Summary of the method: as §1

Gal3S(b1-4)GlcNAc = target: Gal3S(b1-4)GlcNAc
Summary of the method: as §1

[27] = target: Gal3S(b1-4)[Fuc(a1-3)]Glc6S
Summary of the method: as §1

[28] = target: Gal3S(b1-4)[Fuc(a1-3)]GlcNAc
Summary of the method: as §1

[29] = target: Gal3S(b1-4)[Fuc(a1-3)]GlcNAc6S
Summary of the method: as §1

Gal3S4S(b1-4)GlcNAc = target: Gal3S4S(b1-4)GlcNAc
Summary of the method: as §1

Gal3S6S(b1-4)GlcNAc = target: Gal3S6S(b1-4)GlcNAc
Summary of the method: as §1

Gal3S6S(b1-4)GlcNAc6S = target: Gal3S6S(b1-4)GlcNAc6S
Summary of the method: as §1

Gal4S(b1-4)GlcNAc = target: Gal4S(b1-4)GlcNAc
Summary of the method: as §1

Gal4S6S(b1-4)GlcNAc = target: Gal4S6S(b1-4)GlcNAc
Summary of the method: as §1

Gal6P(b1-4)GlcNAc = target: Gal6P(b1-4)GlcNAc
Summary of the method: as §1

Gal6S(b1-3)GlcNAc = target: Gal6S(b1-3)GlcNAc
Summary of the method: as §1

Gal6S(b1-3)GlcNAc6S = target: Gal6S(b1-3)GlcNAc6S
Summary of the method: as §1

Gal6S(b1-4)Glc = target: Gal6S(b1-4)Glc
Summary of the method: as §1

B1: Mg3lysM (Mycosphaerella graminicola) (protein)
chain: APQNPPTSCSAAPQPTGTGSPGTVCGSTTFTNYTVKAGDTLGAIAKQYNSGVCDIAKVNGIDNPDYIKPDQVLSIPANCVTPDNTSCVKPVPVITNTCVLGVGSTYTVKSGDSFSAIATSFNITLASLEARNPQIPNYDLIFPGQVINTPLCPNSVCDSIGTYVIESGDIFYNLAQSNNVTVGQLESLNVNVNVTDIHPGDIIILPHNCHNITASA
[1]
  glycan array binding signal (z-score): -0.074
[2]
  glycan array binding signal (z-score): 0.04
[3]
  glycan array binding signal (z-score): -0.08
[4]
  glycan array binding signal (z-score): -0.071
[5]
  glycan array binding signal (z-score): -0.107
[6]
  glycan array binding signal (z-score): -0.002
[7]
  glycan array binding signal (z-score): 0.039
[8]
  glycan array binding signal (z-score): -0.04
[9]
  glycan array binding signal (z-score): 0.03
[10]
  glycan array binding signal (z-score): -0.014
[11]
  glycan array binding signal (z-score): 0.009
[12]
  glycan array binding signal (z-score): 0.14
[13]
  glycan array binding signal (z-score): 0.052
[14]
  glycan array binding signal (z-score): -0.097
[15]
  glycan array binding signal (z-score): -0.081
[16]
  glycan array binding signal (z-score): -0.078
[17]
  glycan array binding signal (z-score): -0.028
[18]
  glycan array binding signal (z-score): -0.079
[19]
  glycan array binding signal (z-score): -0.173
[20]
  glycan array binding signal (z-score): -0.053
[21]
  glycan array binding signal (z-score): -0.112
[22]
  glycan array binding signal (z-score): 0.051
[23]
  glycan array binding signal (z-score): -0.073
[24]
  glycan array binding signal (z-score): -0.01
[25]
  glycan array binding signal (z-score): -0.106
Gal(b1-4)GlcNAc6P
  glycan array binding signal (z-score): 0.098
Gal(b1-6)Gal
  glycan array binding signal (z-score): -0.068
Gal3S(b1-3)GalNAc
  glycan array binding signal (z-score): -0.103
Gal3S(b1-3)GlcNAc
  glycan array binding signal (z-score): -0.075
[26]
  glycan array binding signal (z-score): 0.098
Gal3S(b1-4)Glc
  glycan array binding signal (z-score): -0.053
Gal3S(b1-4)Glc6S
  glycan array binding signal (z-score): -0.101
Gal3S(b1-4)GlcNAc
  glycan array binding signal (z-score): -0.031
[27]
  glycan array binding signal (z-score): 0.053
[28]
  glycan array binding signal (z-score): 0.046
[29]
  glycan array binding signal (z-score): -0.138
Gal3S4S(b1-4)GlcNAc
  glycan array binding signal (z-score): -0.086
Gal3S6S(b1-4)GlcNAc
  glycan array binding signal (z-score): -0.048
Gal3S6S(b1-4)GlcNAc6S
  glycan array binding signal (z-score): 0.004
Gal4S(b1-4)GlcNAc
  glycan array binding signal (z-score): -0.073
Gal4S6S(b1-4)GlcNAc
  glycan array binding signal (z-score): -0.091
Gal6P(b1-4)GlcNAc
  glycan array binding signal (z-score): -0.143
Gal6S(b1-3)GlcNAc
  glycan array binding signal (z-score): -0.127
Gal6S(b1-3)GlcNAc6S
  glycan array binding signal (z-score): -0.179
Gal6S(b1-4)Glc
  glycan array binding signal (z-score): -0.027
